Results published in ChEMBL document CHEMBL1201862, “PubChem BioAssay data set” (2004).
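Assay format: 96-well plates, 48-hour exposure. GI50 is the concentration that inhibits growth by half.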 Activity calls are given as the source filed them. Cut-off read from the data, not from the text of the source: active = GI50 up to about 1.1 µM and inactive = higher.

The compounds below were run on NCI-H322M (assay: NCI anticancer screen, dose series, 48 h).

| Structure (SMILES) | GI50 |
| --- | --- |
| c1ccc(C(c2ccccc2)c2cccnc2)cc1 | inactive: > 100 µM |
| COc1ccc2cc(C(=O)NCCCNC(=O)c3ccc4c(OC)c(OC)ccc4c3)ccc2c1OC | inactive: > 100 µM |
| Cn1c(=O)c2c(nc3n2C(CCl)CO3)n(C)c1=O (configuration not stated) | inactive: > 100 µM |
| COc1ccc(/C=C2\CC3C4CC=C5C[C@@H](O)CC[C@]5(C)C4CC[C@]3(C)\C2=N\O)cc1OC (some centres not stated) | inactive: 43.2 µM |
| CCCCCCCCCCCCCCCCNCCCN(C)CCCN | inactive: 16.8 µM |
| O=C(O)C12CC3CC(C1)C2C=C3P(=O)(O)O (configuration not stated) | inactive: > 100 µM |
| Cc1ccc(-c2c(C#N)c(N)nc3c2CCS(=O)(=O)c2ccccc2-3)cc1 | inactive: 83.2 µM |
| CCOC(=O)C1=CC(C)(C(=O)OCC)Nc2c(nc(OC)n(C)c2=O)N1 (configuration not stated) | inactive: > 10 µM |
| CCOC(=O)c1c(SC(=O)c2ccc(Cl)cc2)n(-c2ccccc2)c(=S)n(-c2ccccc2)c1=O | inactive: > 100 µM |
| CCCCCCC1NN(C(C)=O)C(CCCCCC)NN1C(C)=O (configuration not stated) | inactive: > 100 µM |
| NC(CCC(=O)NC(CSC(=O)N(O)c1ccc(Br)cc1)C(=O)NCC(=O)O)C(=O)O (configuration not stated) | inactive: > 100 µM |
| O=CCCn1[nH]c(=O)ccc1=O | inactive: > 100 µM |
| Cc1cc(C)nc(NS(=O)(=O)c2ccc(NNC(=O)c3cccc4c(=O)c5ccccc5[nH]c34)cc2)n1 | inactive: 52.2 µM |
| Clc1ccc(COc2ccccc2/C=N/c2c(-c3ccco3)nc3ccccn23)c(Cl)c1 | inactive: > 100 µM |
| COc1cccc(/C=C2\CCC(C)(CN(C)C)C2=O)c1 (configuration not stated) | inactive: > 100 µM |
| Cc1c(Cl)nc(Nc2nc3ccccc3[nH]2)nc1Cl | inactive: 40.5 µM |
| CC1=C(C)C(=O)C(C2=C(C3=CC(=O)C(C)=C(C)C3=O)C(=O)c3ccccc3C2=O)=CC1=O | inactive: 9.95 µM |
| CC1(O)OC(=O)C2=C1CCC1C2CCC2(C)C(O)CCC12 (configuration not stated) | inactive: > 100 µM |
| C/N=C1\S/C(=N\c2ccc(N(C)C)cc2)N1C | inactive: 52.2 µM |

| Structure (SMILES) | GI50 |
| --- | --- |
| COc1cc2c(oc(=O)c3cc4cc([Si](C)(C)C)oc4c(OC)c32)c2cccc(O)c12 | inactive: > 100 µM |
| COC/C=C\[C@@]1(O)CCCC[C@@H]1CC(OC)OC | inactive: > 100 µM |
| COc1cc(C(C)O)c[n+](Cc2ccccc2)c1 (configuration not stated) | inactive: > 100 µM |
| O=[N+]([O-])c1ccc(/C=N/Nc2nnc3c4ccccc4c4ncccc4c3n2)o1 | inactive: > 10 µM |
| O=C(O)CN(CC(=O)O)C(C(=O)O)c1ccccc1 (configuration not stated) | inactive: > 100 µM |
| Cc1ccc(S(=O)(=O)NC(C(=O)O)C(C)C)cc1 (configuration not stated) | inactive: > 100 µM |
| COc1ccc(CN/C=N/C(C#N)=C(\N)C#N)cc1OC | inactive: 81.7 µM |
| CCOC(=O)c1ccc(Nc2nc3cc(C(F)(F)F)ccc3nc2C(=O)OCC)cc1 | inactive: 76.7 µM |
| S=C1C(CCCOCc2ccccc2)C2CCCC23CC2(CCN13)OCCS2 (configuration not stated) | inactive: > 10 µM |
| COC(=O)c1cc2c3c(cc(N(C)C)c2[nH]1)N(C(=O)c1cc2cc(OC)c(OC)c(OC)c2[nH]1)CC3CCl (configuration not stated) | active: 0.00665 µM |
| COc1cc(C2c3cc4c(cc3OC(N3CCCCC3)C2C)OCO4)cc(OC)c1OC (configuration not stated) | inactive: 5.37 µM |
| CC(=O)c1cccc(NC(=O)C(=O)C(C(=O)c2ccccc2F)C2OC(=O)c3ccccc32)c1 (configuration not stated) | inactive: 33.3 µM |
| O=[N+]([O-])c1cc(Cl)cc2cc(Cl)cnc12 | inactive: > 100 µM |
| C=CCN(N=O)C(=O)N(CCC)CCCCC(NC(C)=O)C(=O)NCc1ccccc1 (configuration not stated) | inactive: > 100 µM |
| CC(C)(Br)C(Br)CCC(C)(Br)C(Br)CO (configuration not stated) | inactive: > 10 µM |
| O=C1/C(=C/c2ccccc2S)N=C(c2ccccc2)N1c1nc2c(Cl)cc(Cl)cc2s1 | inactive: 23.9 µM |
| COc1cc(Br)c(CC2C3=C(CCN2C(=O)C2CCC2)CC(=O)CC3)cc1O (configuration not stated) | inactive: 67.3 µM |
| COc1cccc(/C=C/C(=O)N2CC(CCl)c3c2cc(N)c2ccccc32)c1 (configuration not stated) | active: 0.0114 µM |
